No constants are given. Whether binding was seen depends on the method and setting. Binding seen in cells or lysates may run through a third protein. Some binding calls cover weakened binding; strength is not graded here. For some assays here: Tags and fused reporters may be left off the sequences shown.
T1: Human ABCC4 with an amino terminal Ac-GFP fusion protein (human) (UniProt O15439)
T1 sequence: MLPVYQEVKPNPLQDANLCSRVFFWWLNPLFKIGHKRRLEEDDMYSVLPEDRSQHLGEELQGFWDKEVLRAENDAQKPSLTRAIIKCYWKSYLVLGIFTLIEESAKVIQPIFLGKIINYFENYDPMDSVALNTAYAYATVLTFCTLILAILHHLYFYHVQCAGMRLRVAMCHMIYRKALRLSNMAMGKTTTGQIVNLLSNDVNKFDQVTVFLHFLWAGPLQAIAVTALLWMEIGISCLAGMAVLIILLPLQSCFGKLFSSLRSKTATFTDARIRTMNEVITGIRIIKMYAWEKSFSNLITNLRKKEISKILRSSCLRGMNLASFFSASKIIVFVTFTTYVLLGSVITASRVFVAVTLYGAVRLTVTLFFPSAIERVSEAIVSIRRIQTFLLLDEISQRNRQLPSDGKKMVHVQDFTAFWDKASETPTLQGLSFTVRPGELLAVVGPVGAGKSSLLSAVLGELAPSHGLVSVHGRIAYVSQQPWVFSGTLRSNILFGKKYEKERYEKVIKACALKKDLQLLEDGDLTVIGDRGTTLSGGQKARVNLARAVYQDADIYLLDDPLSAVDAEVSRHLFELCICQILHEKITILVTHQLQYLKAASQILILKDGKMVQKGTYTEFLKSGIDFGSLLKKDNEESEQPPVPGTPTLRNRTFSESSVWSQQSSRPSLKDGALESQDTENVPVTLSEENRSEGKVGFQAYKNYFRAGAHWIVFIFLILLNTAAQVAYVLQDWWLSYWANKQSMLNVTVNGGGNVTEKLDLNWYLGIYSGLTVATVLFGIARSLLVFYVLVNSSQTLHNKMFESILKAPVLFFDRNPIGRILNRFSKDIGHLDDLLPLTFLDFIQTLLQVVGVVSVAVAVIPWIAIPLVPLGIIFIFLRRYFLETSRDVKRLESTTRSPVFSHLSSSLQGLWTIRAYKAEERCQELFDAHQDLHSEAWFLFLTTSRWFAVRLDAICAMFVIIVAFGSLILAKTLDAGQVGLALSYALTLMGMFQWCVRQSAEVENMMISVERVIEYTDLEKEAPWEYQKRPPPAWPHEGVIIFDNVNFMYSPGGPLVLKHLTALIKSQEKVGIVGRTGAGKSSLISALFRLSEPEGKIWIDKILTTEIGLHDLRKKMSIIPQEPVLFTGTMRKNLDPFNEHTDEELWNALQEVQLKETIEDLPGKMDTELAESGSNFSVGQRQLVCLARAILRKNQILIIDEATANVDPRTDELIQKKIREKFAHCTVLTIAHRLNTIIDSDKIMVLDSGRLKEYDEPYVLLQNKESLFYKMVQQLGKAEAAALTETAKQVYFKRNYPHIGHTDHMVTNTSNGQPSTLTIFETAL

T2: N-terminal domain of MPP1 (amino acids 1–83), GST-fusion protein (UniProt Q00013)
T2 sequence: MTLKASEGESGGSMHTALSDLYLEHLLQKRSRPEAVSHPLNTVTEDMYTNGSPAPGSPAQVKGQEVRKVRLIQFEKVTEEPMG

T3: His-S-MPP1 fusion protein (full-length MPP1) (UniProt Q00013)
T3 sequence: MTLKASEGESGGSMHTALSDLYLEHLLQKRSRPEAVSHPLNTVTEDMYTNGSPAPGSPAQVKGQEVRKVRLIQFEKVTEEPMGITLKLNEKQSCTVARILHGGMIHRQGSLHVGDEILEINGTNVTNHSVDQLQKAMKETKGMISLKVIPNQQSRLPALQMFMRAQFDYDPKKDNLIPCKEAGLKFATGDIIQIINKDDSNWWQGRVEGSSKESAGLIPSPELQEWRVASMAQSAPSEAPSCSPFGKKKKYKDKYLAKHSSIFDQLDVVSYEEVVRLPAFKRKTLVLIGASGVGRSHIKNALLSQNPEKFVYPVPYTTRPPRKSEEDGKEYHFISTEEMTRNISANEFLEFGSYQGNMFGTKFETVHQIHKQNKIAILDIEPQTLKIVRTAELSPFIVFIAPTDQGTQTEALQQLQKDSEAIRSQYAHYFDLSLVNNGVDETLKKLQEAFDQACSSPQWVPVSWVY

T4: C-terminal domain of MPP1 containing both the SH3 and GUK domains (amino acids 161–466), GST-fusion protein (UniProt Q00013)
T4 sequence: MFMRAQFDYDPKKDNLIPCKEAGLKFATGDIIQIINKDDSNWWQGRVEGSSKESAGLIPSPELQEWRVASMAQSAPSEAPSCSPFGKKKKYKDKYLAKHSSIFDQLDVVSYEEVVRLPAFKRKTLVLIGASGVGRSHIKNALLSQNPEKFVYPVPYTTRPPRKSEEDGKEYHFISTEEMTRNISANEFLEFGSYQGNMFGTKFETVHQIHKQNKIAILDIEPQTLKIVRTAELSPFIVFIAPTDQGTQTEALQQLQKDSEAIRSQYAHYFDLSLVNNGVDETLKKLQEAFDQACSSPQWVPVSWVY

T5: PDZ domain of MPP1 (amino acids 83–160), GST-fusion protein (UniProt Q00013)
T5 sequence: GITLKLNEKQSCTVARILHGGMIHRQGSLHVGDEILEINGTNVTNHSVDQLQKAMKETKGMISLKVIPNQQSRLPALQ

T6: MPP1, endogenous in MO7e cells (human (endogenous in MO7e)) (UniProt Q00013)
T6 sequence: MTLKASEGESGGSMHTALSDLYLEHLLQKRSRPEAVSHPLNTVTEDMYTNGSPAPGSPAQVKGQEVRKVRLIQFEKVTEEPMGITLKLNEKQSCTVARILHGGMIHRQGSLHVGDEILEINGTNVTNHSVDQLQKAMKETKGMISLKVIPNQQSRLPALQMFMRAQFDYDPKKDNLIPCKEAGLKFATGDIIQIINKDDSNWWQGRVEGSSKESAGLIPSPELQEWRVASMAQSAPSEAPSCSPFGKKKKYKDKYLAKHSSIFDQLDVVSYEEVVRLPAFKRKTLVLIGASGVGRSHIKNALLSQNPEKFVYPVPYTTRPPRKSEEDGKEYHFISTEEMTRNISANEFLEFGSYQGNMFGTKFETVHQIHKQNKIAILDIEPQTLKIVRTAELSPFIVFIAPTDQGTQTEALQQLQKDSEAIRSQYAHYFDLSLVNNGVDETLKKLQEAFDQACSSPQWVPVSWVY


Legend:
[1] = molecular target: T1, Human ABCC4 with an amino terminal Ac-GFP fusion protein (human); assay: proximity ligation; HEK293 cells transfected with ABCC4 or ABCC4ΔC and MPP1, fixed and permeabilized; anti-ABCC4 and anti-MPP1 antibodies, Duolink kit
[2] = molecular target: T1, Human ABCC4 with an amino terminal Ac-GFP fusion protein (human); assay: co-IP; cells co-transfected with MPP1 and GFP-ABCC4 or GFP-ABCC4ΔC; immunoprecipitation with GFP-TRAP; blot with anti-MPP1
[3] = molecular target: T2, N-terminal domain of MPP1 (amino acids 1–83), GST-fusion protein; assay: co-IP; purified MPP1 or purified MPP1 fragments incubated with MO7e lysates, immunoprecipitation, blot with an antibody against ABCC4; only the target purified
[4] = molecular target: T3, His-S-MPP1 fusion protein (full-length MPP1); assay: as above
[5] = molecular target: T4, C-terminal domain of MPP1 containing both the SH3 and GUK domains (amino acids 161–466), GST-fusion protein; assay: as above
[6] = molecular target: T5, PDZ domain of MPP1 (amino acids 83–160), GST-fusion protein; assay: as above
[7] = molecular target: T6, MPP1, endogenous in MO7e cells (human (endogenous in MO7e)); assay: proximity ligation; endogenous proteins in the AML cell line MO7e
[8] = molecular target: T6, MPP1, endogenous in MO7e cells (human (endogenous in MO7e)); assay: co-IP; endogenous proteins in MO7e lysate (MPER lysis buffer); antibodies 4 h at 4 °C, protein G-agarose; immunoblot

Row | binding [1] | binding [2] | binding [3] | binding [4] | binding [5] | binding [6] | binding [7] | binding [8] | Binder
1 | binds | binds |  |  |  |  |  |  | MPP1 expressed from an expression vector in HEK293 cells (protein, UniProt Q00013 1-466) MTLKASEGESGGSMHTALSDLYLEHLLQKRSRPEAVSHPLNTVTEDMYTNGSPAPGSPAQVKGQEVRKVRLIQFEKVTEEPMGITLKLNEKQSCTVARILHGGMIHRQGSLHVGDEILEINGTNVTNHSVDQLQKAMKETKGMISLKVIPNQQSRLPALQMFMRAQFDYDPKKDNLIPCKEAGLKFATGDIIQIINKDDSNWWQGRVEGSSKESAGLIPSPELQEWRVASMAQSAPSEAPSCSPFGKKKKYKDKYLAKHSSIFDQLDVVSYEEVVRLPAFKRKTLVLIGASGVGRSHIKNALLSQNPEKFVYPVPYTTRPPRKSEEDGKEYHFISTEEMTRNISANEFLEFGSYQGNMFGTKFETVHQIHKQNKIAILDIEPQTLKIVRTAELSPFIVFIAPTDQGTQTEALQQLQKDSEAIRSQYAHYFDLSLVNNGVDETLKKLQEAFDQACSSPQWVPVSWVY
2 |  |  | no binding | binds | no binding | binds | binds | binds | ABCC4, endogenous in MO7e cells (natural protein, human (endogenous in MO7e), UniProt O15439 1-1325, looked up) MLPVYQEVKPNPLQDANLCSRVFFWWLNPLFKIGHKRRLEEDDMYSVLPEDRSQHLGEELQGFWDKEVLRAENDAQKPSLTRAIIKCYWKSYLVLGIFTLIEESAKVIQPIFLGKIINYFENYDPMDSVALNTAYAYATVLTFCTLILAILHHLYFYHVQCAGMRLRVAMCHMIYRKALRLSNMAMGKTTTGQIVNLLSNDVNKFDQVTVFLHFLWAGPLQAIAVTALLWMEIGISCLAGMAVLIILLPLQSCFGKLFSSLRSKTATFTDARIRTMNEVITGIRIIKMYAWEKSFSNLITNLRKKEISKILRSSCLRGMNLASFFSASKIIVFVTFTTYVLLGSVITASRVFVAVTLYGAVRLTVTLFFPSAIERVSEAIVSIRRIQTFLLLDEISQRNRQLPSDGKKMVHVQDFTAFWDKASETPTLQGLSFTVRPGELLAVVGPVGAGKSSLLSAVLGELAPSHGLVSVHGRIAYVSQQPWVFSGTLRSNILFGKKYEKERYEKVIKACALKKDLQLLEDGDLTVIGDRGTTLSGGQKARVNLARAVYQDADIYLLDDPLSAVDAEVSRHLFELCICQILHEKITILVTHQLQYLKAASQILILKDGKMVQKGTYTEFLKSGIDFGSLLKKDNEESEQPPVPGTPTLRNRTFSESSVWSQQSSRPSLKDGALESQDTENVPVTLSEENRSEGKVGFQAYKNYFRAGAHWIVFIFLILLNTAAQVAYVLQDWWLSYWANKQSMLNVTVNGGGNVTEKLDLNWYLGIYSGLTVATVLFGIARSLLVFYVLVNSSQTLHNKMFESILKAPVLFFDRNPIGRILNRFSKDIGHLDDLLPLTFLDFIQTLLQVVGVVSVAVAVIPWIAIPLVPLGIIFIFLRRYFLETSRDVKRLESTTRSPVFSHLSSSLQGLWTIRAYKAEERCQELFDAHQDLHSEAWFLFLTTSRWFAVRLDAICAMFVIIVAFGSLILAKTLDAGQVGLALSYALTLMGMFQWCVRQSAEVENMMISVERVIEYTDLEKEAPWEYQKRPPPAWPHEGVIIFDNVNFMYSPGGPLVLKHLTALIKSQEKVGIVGRTGAGKSSLISALFRLSEPEGKIWIDKILTTEIGLHDLRKKMSIIPQEPVLFTGTMRKNLDPFNEHTDEELWNALQEVQLKETIEDLPGKMDTELAESGSNFSVGQRQLVCLARAILRKNQILIIDEATANVDPRTDELIQKKIREKFAHCTVLTIAHRLNTIIDSDKIMVLDSGRLKEYDEPYVLLQNKESLFYKMVQQLGKAEAAALTETAKQVYFKRNYPHIGHTDHMVTNTSNGQPSTLTIFETAL

Source: publication PMC5691054, “An unexpected protein interaction promotes drug resistance in leukemia” (Nature Communications, 2017)
